Data published in the supplement of paper PMC11417369.
± gives the standard deviation of the averaged measurements. Some of the results follow.

test system: PfAP2-I AP2 domain 3 (GST-tagged); assay: gcPBM binding intensity (ln(normalized median fluorescence intensity)); higher = stronger DNA binding
Procedure, shortened: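 An Agilent 4 × 180k array of primer-extended double-stranded 36-bp intergenic genomic probes, with negative controls, was incubated for 1 h with GST-tagged P. falciparum DNA-binding domains expressed in E. coli. Alexa488 anti-GST antibody detected bound protein, scanned at 488 nm. Binding intensity is the highest Masliner-normalised natural-log median intensity across replicate spots of either probe orientation.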

Row | Sequence | gcPBM binding intensity (ln)
1 | TGCACGCACAGACACACACACAACTAAAAAATAATG [CACACA_site7250] | 8.305 ± 0.078
2 | AAAAAAAGGTAAAATTGTACATACGCACAAAAATAT [XGTACX_site2887] | 8.23 ± 0.61
3 | ATTTCCTTGAATGTTGCATGCTGTATTTTAATTAAA [TGCATGCA_site280] | 7.89 ± 0.91
4 | AAAAAAAGGAAATTTACACACACATATAATATACAT [CACACA_site3297] | 7.8 ± 0.69
5 | TAGATTATTATACTAGTGCAAATTATTTAAGAAAAA | 10 ± 0.34
6 | AAAAAAAAAAAGTGCACACATAAAAATATGATCTAA [CACACA_site572] | 10.2 ± 0.42
7 | TAAATTTTTCTAAGTGCATGTTAATTTTTCAATTTA [TGCATGCA_site906] | 9.19 ± 0.59
8 | ATATTATTTATAAAAGTGCAAAAATCACTTCTTTTA [GTGCAC_site9656] | 9.38 ± 0.22
9 | TTTAAAAAGTTATGAAGTACATATATATATATATAT [XGTACX_site2188] | 9.43 ± 0.48
10 | GAACAAAATGATAGAAGTACAAATATTTATTTTGTT [XGTACX_site7146] | 7.84 ± 0.64
11 | TGGGAACAATATATTTGTACTTAAATAAATAAAAAA [XGTACX_site6762] | 7.76 ± 0.61
12 | AAAGAGAAACAAAATTGTACATTATATTGTAGACGT [XGTACX_site976] | 7.88 ± 0.67
13 | TATATTTATAAGTGTACACATTATATAAATCCCTAT [CACACA_site6122] | 8.08 ± 0.27
14 | ATTAAATGATTCATATGTACATAAATAAATAAATAT [XGTACX_site2249] | 8.02 ± 0.32
15 | TTTCTTTTTAAAGTGTATTAAAATTGAATAAAAAGA [XGTACX_negctrl_site408] | 8.1 ± 0.19
16 | TATTAATATTTACACACATGCGCACACATAAATAAA [TGCATGCA_site609] | 8.69 ± 0.46
17 | TTTTTTTTTTTTGTCACACACCTTCATAAGAAAAAA [CACACA_site4779] | 8.21 ± 0.66
18 | ATCATCACATAAGAAAATAGATAAAAAAAAAAAAAT [XGTACX_negctrl_site589] | 7.53 ± 0.48
19 | GTACAGATATTGTACATACACACCTATATAAATATC [CACACA_site5739] | 7.94 ± 0.4
20 | TAAATCCGCAGGCACACACACATATTAAGAAAAAAA [CACACA_site6061] | 8.18 ± 0.36
21 | ATGAAAAAACATAATTGTACAAAAGTTGGATTCGAT [XGTACX_site7732] | 8.33 ± 0.52
22 | TATTTAAAAGATGAAAGTACACATTTAATTACATTT [XGTACX_site3781] | 7.75 ± 0.17
23 | ATGTGTATACTAAGAACACACAAGTTACTTGGTGTT [CACACA_site6864] | 7.47 ± 0.7

Row | Sequence | gcPBM binding intensity (ln)
24 | TATATTTAACATACTTTTTTTTTTTTTTTTTTTTTT [CACACA_negctrl_site938] | 9.55 ± 0.099
25 | AAAAAAAAAAAACATACACACAAGAACAAAATATGA [CACACA_site3002] | 7.94 ± 0.14
26 | AGTCTTTTACATTGCACACACATTTCTTTCCTTTTG [CACACA_site2988] | 9.24 ± 0.39
27 | TAATTAGCATAATACACATGCATACATTTATATATA [TGCATGCA_site542] | 7.94 ± 0.65
28 | TACATATATCTATGTGTGCACTTATTTCCGGACAAA | 10.4 ± 0.15
29 | TATCTGTATTTGTATACACACAAATGTATTTATTTA [CACACA_site4830] | 7.7 ± 0.56
30 | TACAATATTTCGAGCTTGCACTTTTATTAAGTAAAT | 8.09 ± 0.52
31 | TATACAGACAGACACACACACATATATAAATATGTA [CACACA_site6912] | 7.76 ± 0.35
32 | ATTATTATTTTTAACTGTACATAGATATAGATATCC [XGTACX_site8714] | 7.82 ± 0.5
33 | TAAGAAAAATATATATGTACACATATATATATATAT [XGTACX_site8542] | 9.01 ± 0.74
34 | AACTTTTATACGGATACACACAAAAAAAAATAAAAA [CACACA_site6547] | 7.88 ± 0.28
35 | TGTATGTTATATACAACACACAAAAAAAAACAAGTT [CACACA_site301] | 7.62 ± 0.7
36 | TGATTAAAAGAGGGAAAAAAAAAAAAAAAAAAAAAA [CACACA_negctrl_site896] | 8.23 ± 0.91
37 | TGACGAAAAAAAAGGGTGCTTAGTATAACTTTAAAG | 9.085 ± 0.049
38 | TTCTTTTTTAAACACACACACACAAGAAAATATATA [CACACA_site5680] | 8.29 ± 0.27
39 | TCGACAAATGTATATACACACATTTGTAACATAAAT [CACACA_site560] | 7.58 ± 0.39
40 | TATAAAGGTGAAATTTGTACATAGTCATTTTTTAAT [XGTACX_site4811] | 7.72 ± 0.62
41 | TTATTCAGAAAAAAAAAAAAAAAAAAAAAAAAAAAA [CACACA_negctrl_site1662] | 8.29 ± 0.95
42 | GAGAAGACATTACACAGTACCCAGGAAATCTACGGA [XGTACX_site1993] | 7.56 ± 0.82
43 | ATATGTAAAGAAAAGTAAACACTAATTTTAAACAAT [CACACA_negctrl_site11] | 7.48 ± 0.76
44 | TATATATATGTGCAGTGTACTTTTTTTTTCTGTAAG [XGTACX_site3424] | 8.8 ± 0.93
45 | TTTTTTTTAATTGTGATACGTATATTATTTTTTGAT [TGCATGCA_negctrl_site318] | 7.72 ± 0.5
46 | ATTTTTAATATTATTACACACACTAATAAAAAAAAA [CACACA_site8265] | 7.96 ± 0.27

Row | Sequence | gcPBM binding intensity (ln)
47 | ATATATATATATATATGTACTTAATATTTCTTATTT [XGTACX_site6206] | 9.37 ± 0.25
48 | TATATTAAGTATAAGACACACATATAGTAATAGAAA [CACACA_site5176] | 7.71 ± 0.58
49 | TTATAAAAAAAAATAACACACAGACATAAGAATAAA [CACACA_site9383] | 8.09 ± 0.61
50 | AAATATAATAATAATTTAAGAATCTAATATTTTATA [CACACA_negctrl_site831] | 7.05 ± 0.35
51 | TACTATATCGATACCAGTACAGATTTATAAATAATA [XGTACX_site7491] | 7.68 ± 0.35
52 | ATATAACTTTTCTTAACACACAAAAAACAAAAATAA [CACACA_site2380] | 8 ± 0.49
53 | AAGTGTCAAAGTTACACACACAAACTTGTCATTTTT [CACACA_site837] | 7.55 ± 0.79
54 | GGTATACATATTAAATGTACATATTTTAACAATAAG [XGTACX_site4868] | 7.83 ± 0.15
55 | ATATAATTATATAAATGTACTCATTCGTTATTTTGC [XGTACX_site6132] | 7.65 ± 0.37
56 | TATGAATATCTATACACACACATATATATACTCACT [CACACA_site1597] | 7.76 ± 0.56
57 | CAAAGATATATAAACACACAAATATAACATATATAC [CACACA_site7395] | 7.68 ± 0.58
58 | TATGTATATTTTTTTGTGCACATATATATATATATA | 10.72 ± 0.099
59 | TATATTATTATATATTGTACTTTTTATATTTGCATT [XGTACX_site2978] | 7.72 ± 0.49
60 | TACACTTGTAATTGCGTGCACGAAGGATATATATAT | 9.95 ± 0.3
61 | ATTTTTTTTTTAAAATGTACATGAGAAATTGTATAT [XGTACX_site425] | 8.03 ± 0.22
62 | TTTCTTATATAAGTGTACTAAAATATATATATGCAA [GTGCAC_negctrl_site546] | 8.14 ± 0.36
63 | TATATTATTAATTAAGCACACATTATTTTTATAATA [CACACA_site3982] | 8.54 ± 0.3
64 | TAACATAATATAGACACACACATGTACATATGCCAA [CACACA_site1842] | 7.78 ± 0.41
65 | TAAAAAAATAAATATACACACATATATAAATATGTA [CACACA_site6641] | 7.22 ± 0.24
66 | GTTATTTATAGACACACACACATGCATGCACATATA [CACACA_site6204] | 9.01 ± 0.52
67 | CATATATATTTGTTCACACACACACCCAAAAAAAAA [CACACA_site2476] | 8.27 ± 0.33
68 | CACACCCACAGACACACACACACATATATATATATA [CACACA_site363] | 9.45 ± 0.38
69 | ATATATATATATATTTGTACATATATACATAAAATT [XGTACX_site359] | 9.38 ± 0.4

Row | Sequence | gcPBM binding intensity (ln)
70 | GAAAAAGTTATAAATTGTACTAAATATTAAATATTG [XGTACX_site7890] | 7.46 ± 0.32
71 | TTTAAAATGGGACTTTGAAAAAAAAAAAAAAAAACA [TGCATGCA_negctrl_site111] | 7.78 ± 0.42
72 | TATAGGTATGTATGTACACACAAAAAATGGAATATA [CACACA_site7704] | 8.01 ± 0.41
73 | TATATATATATATATTGTACATAATGTATATATGTT [XGTACX_site3448] | 9.43 ± 0.66
74 | CATATGTTCATCATAGCACACATATATAAATTACAA [CACACA_site9177] | 7.83 ± 0.5
75 | AAAAAAAAAAAAAGGTGTACATGCAAAATAAATTCT [XGTACX_site4592] | 8.56 ± 0.35
76 | AAATAAATAAGAAACGCATGCATATATAATATATAA [TGCATGCA_site326] | 7.7 ± 0.74
77 | TTTATTATCGTTCTCATACACACAAAATATACATAC [CACACA_site2642] | 8.12 ± 0.53
78 | TAGGCGTTTAATAAAAGTACCCACACATATATTATT [XGTACX_site1932] | 7.68 ± 0.49
79 | CATAAATTAATAGTCACACACGTATTTTTTATATAT [CACACA_site2526] | 7.62 ± 0.49
80 | ATTTAACAACTTCAAACACACAATATATATATATAT [CACACA_site2093] | 9.45 ± 0.55
81 | AATTCAAATATAAATACACACACATAGCTACAAAAT [CACACA_site9386] | 7.81 ± 0.69
82 | AAATATATATGTGGGGGTACTAATAAAAAAACCCCT [XGTACX_site2657] | 8.25 ± 0.37
83 | TTACACAAACAAATTATGGACACATAAGTAAAAGGA [CACACA_negctrl_site1622] | 8.21 ± 0.76
84 | TGAAAAAAAAAAAAAAAAAAAAGAAAAAAAAAAAAA [CACACA_negctrl_site709] | 7.82 ± 1.2
85 | TATAATTCATATGAAACACACATTTATTTTAATTAC [CACACA_site3686] | 7.52 ± 0.59
86 | GAAAAAAGAAAAAAAAGTACATATATTTAATAAGAC [XGTACX_site6912] | 8.13 ± 0.45
87 | TTATCCATAAAAAAGTGTACGCACTAAAATTGAAAA [XGTACX_site5460] | 9.4 ± 0.099
88 | ATTAAAACCAATTAAAAAAAATTTATAATGGAAGCA [TGCATGCA_negctrl_site273] | 7.57 ± 0.35
89 | GAGATAAAATAAAACACACACATATATATATATAAT [CACACA_site5246] | 7.68 ± 0.37
